# From PMC5507898
# By UniProt entry, the sequences of proteins in these tests, tags left out. Where a name states a change or a piece, a line headed by the entry shows the natural chain unless it says otherwise.
# UniProt P31749: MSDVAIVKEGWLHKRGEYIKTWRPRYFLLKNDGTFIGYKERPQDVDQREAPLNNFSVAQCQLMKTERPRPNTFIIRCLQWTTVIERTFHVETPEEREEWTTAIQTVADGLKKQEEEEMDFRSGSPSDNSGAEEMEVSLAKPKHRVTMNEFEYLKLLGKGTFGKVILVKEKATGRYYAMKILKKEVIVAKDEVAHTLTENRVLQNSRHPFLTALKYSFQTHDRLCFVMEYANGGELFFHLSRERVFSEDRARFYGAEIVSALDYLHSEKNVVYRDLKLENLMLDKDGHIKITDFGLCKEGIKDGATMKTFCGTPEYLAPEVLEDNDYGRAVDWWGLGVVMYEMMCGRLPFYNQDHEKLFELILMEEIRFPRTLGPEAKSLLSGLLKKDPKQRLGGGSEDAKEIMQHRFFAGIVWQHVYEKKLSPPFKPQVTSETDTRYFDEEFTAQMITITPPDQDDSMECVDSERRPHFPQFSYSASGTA
# UniProt Q8IXJ9: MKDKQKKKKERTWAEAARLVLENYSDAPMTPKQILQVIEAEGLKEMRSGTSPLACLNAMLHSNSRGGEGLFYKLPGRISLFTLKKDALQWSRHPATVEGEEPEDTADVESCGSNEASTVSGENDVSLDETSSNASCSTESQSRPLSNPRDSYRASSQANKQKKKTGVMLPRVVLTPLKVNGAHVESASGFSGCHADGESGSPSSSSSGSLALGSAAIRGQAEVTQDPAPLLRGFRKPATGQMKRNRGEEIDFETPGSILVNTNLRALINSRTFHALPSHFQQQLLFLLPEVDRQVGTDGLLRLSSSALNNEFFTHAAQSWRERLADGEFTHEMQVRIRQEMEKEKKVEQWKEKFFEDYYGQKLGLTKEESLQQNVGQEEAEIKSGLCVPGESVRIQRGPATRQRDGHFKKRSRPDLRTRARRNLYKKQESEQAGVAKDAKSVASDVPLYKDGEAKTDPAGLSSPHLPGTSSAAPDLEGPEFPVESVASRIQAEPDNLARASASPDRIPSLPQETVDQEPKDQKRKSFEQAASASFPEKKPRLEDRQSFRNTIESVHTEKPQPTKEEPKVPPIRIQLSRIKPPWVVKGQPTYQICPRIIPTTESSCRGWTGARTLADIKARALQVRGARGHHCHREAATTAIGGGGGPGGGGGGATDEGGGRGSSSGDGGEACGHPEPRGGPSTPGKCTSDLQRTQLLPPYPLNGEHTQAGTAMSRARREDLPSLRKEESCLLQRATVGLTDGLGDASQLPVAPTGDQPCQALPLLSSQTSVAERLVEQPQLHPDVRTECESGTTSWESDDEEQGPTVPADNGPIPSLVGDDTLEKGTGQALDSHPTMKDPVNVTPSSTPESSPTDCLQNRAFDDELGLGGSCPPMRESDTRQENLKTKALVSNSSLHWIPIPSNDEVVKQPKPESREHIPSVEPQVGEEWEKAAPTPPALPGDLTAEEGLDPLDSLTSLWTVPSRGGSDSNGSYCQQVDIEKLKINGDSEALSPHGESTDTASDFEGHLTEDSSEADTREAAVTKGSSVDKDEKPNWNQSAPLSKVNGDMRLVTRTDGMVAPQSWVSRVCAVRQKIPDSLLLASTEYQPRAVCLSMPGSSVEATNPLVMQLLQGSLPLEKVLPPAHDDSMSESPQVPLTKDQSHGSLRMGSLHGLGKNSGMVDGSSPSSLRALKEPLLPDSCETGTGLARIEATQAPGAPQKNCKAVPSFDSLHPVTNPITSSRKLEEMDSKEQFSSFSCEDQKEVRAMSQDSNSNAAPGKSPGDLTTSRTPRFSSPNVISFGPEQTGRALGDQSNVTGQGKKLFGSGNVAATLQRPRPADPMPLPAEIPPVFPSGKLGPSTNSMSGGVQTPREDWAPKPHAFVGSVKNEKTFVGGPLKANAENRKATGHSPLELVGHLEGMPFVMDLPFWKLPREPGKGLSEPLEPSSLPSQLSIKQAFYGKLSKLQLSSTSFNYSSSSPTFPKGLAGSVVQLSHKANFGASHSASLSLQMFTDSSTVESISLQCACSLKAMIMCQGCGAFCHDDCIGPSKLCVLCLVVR
# UniProt P46527: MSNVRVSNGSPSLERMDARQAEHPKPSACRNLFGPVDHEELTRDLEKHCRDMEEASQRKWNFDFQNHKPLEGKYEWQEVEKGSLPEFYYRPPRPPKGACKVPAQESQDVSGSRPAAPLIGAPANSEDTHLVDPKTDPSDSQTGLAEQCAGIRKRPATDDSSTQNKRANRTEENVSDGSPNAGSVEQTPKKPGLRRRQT
# These are yes or no findings as the source states them, for the method shown. For part of these data: In cells and extracts the contact can be indirect. Some entries that bind do so weakly or less than the wild type. For part of these data: Sequences can lack the tags named with a protein.
# How the values were obtained:
# [1] = target: AKT1 (endogenous, H1299 cells) (human (endogenous in H1299)) (UniProt P31749); assay: co-IP; H1299 cell lysates; IP with anti-AKT1 or anti-ASXL1 antibody, blot with the other; lysis in TEN-modified buffer (50 mM Tris-Cl pH 7.5, 150 mM NaCl, 0.1% NP-40, 5 mM EDTA), 4 °C overnight, washes with RIPA buffer; a further co-IP after IGF-1 or LY294002 (Supplementary Figure 2e, cells not stated)
# [2] = target: AKT1 (endogenous, H1299 cells) (human (endogenous in H1299)) (UniProt P31749); assay: co-IP; IP from cytoplasmic and nuclear fractions of H1299 cells
# [3] = target: Flag-AKT1 constitutive active mutant (T308D/S473D) (human) (UniProt P31749); assay: co-IP; H1299 cells transfected with Flag-AKT1, CA or KD mutant vectors; lysates for IP and WB
# [4] = target: Flag-AKT1 kinase-deficient mutant (T308A/S473A) (human) (UniProt P31749); assay: as above
# [5] = target: Flag-AKT1 wild-type (human) (UniProt P31749); assay: as above
# [6] = target: ASXL1 (endogenous, H1299 cells) (human (endogenous in H1299)) (UniProt Q8IXJ9); assay: co-IP; H1299 cell lysates; IP with anti-AKT1 or anti-ASXL1 antibody, blot with the other; lysis in TEN-modified buffer (50 mM Tris-Cl pH 7.5, 150 mM NaCl, 0.1% NP-40, 5 mM EDTA), 4 °C overnight, washes with RIPA buffer; a further co-IP after IGF-1 or LY294002 (Supplementary Figure 2e, cells not stated)
# [7] = target: p27Kip1 (HEK293 cells) (human (endogenous in HEK293)) (UniProt P46527); assay: co-IP; HEK293 lysates with or without IGF-1 treatment; IP with anti-p27 antibody, WB with anti-ASXL1 and anti-AKT antibody
# [8] = target: T1, GST-ASXL1 fragment (aa 371-655) (mouse) (UniProt P59598); assay: pull-down; GST or GST-ASXL1 fragment on glutathione-Sepharose mixed with His-tagged AKT1 (and fragments); bound protein detected by WB with anti-His antibody; both purified
# T1 sequence: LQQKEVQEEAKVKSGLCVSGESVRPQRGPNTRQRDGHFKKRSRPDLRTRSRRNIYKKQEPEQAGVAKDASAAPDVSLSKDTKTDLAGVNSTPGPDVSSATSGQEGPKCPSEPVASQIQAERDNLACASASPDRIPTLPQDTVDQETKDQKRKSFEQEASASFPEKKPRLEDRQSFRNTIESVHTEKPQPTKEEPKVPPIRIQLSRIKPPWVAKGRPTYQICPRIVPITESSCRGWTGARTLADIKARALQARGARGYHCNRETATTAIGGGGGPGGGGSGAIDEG
substance,measurement,setting,value
"ASXL1 (endogenous, H1299 cells) (from UniProt Q8IXJ9 1-1541)",binding,[1],binds
same,binding,[2],binds
same,binding,[3],binds
same,binding,[4],no binding
same,binding,[5],binds
"AKT1 (endogenous, H1299 cells) (from UniProt P31749 1-480) (enzyme)",binding,[6],binds
AKT1 (HEK293 cells) (from UniProt P31749 1-480) (enzyme),binding,[7],binds
His-AKT1 (from UniProt P31749 1-480) (enzyme),binding,[8],binds
"ASXL1 (endogenous, HEK293 cells) (from UniProt Q8IXJ9 1-1541)",binding,[7],binds
